Consider 153 variants from a collection of fitness landscapes (doi:10.1126/science.1257360).

The other results are listed elsewhere or left out. Where only a bound is given, the exact number is not on record here.

The labels stand for the following.
B1: PhoQ; a variant is named by its letters at X, in order, P23837 (parent)
chain: MKKLLRLFFPLSLRVRFLLATAAVVLVLSLAYGMVALIGYSVSFDKTTFRLLRGESNLFYTLAKWENNKLHVELPENIDKQSPTMTLIYDENGQLLWAQRDVPWLMKMIQPDWLKSNGFHEIEADVNDTSLLLSGDHSIQQQLQEVREDDDDAEMTHSVAVNVYPATSRMPKLTIVVVDTIPVELKSSYMVWSWFIYVLSANLLLVIPLLWVAAWWSLRPIEALAKEVRELEEHNRELLNPATTRELTSLVRNLNRLLKSERERYDKYRTTLTDLTHSLKTPLXXLQXXLRSLRSEKMSVSDAEPVMLEQISRISQQIGYYLHRASMRGGTLLSRELHPVAPLLDNLTSALNKVYQRKGVNISLDISPEISFVGEQNDFVEVMGNVLDNACKYCLEFVEISARQTDEHLYIVVEDDGPGIPLSKREVIFDRGQRVDTLRPGQGVGLAVAREITEQYEGKIVAGESMLGGARMEVIFGRQHSAPKDE

The variants in the experiment derive from B1. Nature of the experiment: enrichment ratio after two sorts for PhoP signalling (ratio (wild type AVST 3.29)); higher = more functional. Particulars: with PhoP (E. coli).
For NLRR, the enrichment ratio was no more than 0.25.
Take MWND: the enrichment ratio was no more than 0.25.
The figure for SWFW is no more than 0.25; for VTVF it is no more than 0.25.
The same measure for CPFF: no more than 0.25.
For RPKH, the enrichment ratio is no more than 0.25.
The figure for HGMW is no more than 0.25; for HDPA it is no more than 0.25.
For MTGS, the enrichment ratio is 2.94.
Regarding WWVH, the enrichment ratio is no more than 0.25.
Regarding MWPY, the enrichment ratio was no more than 0.25.
The same measure for YYDS: no more than 0.25; for DHYM: no more than 0.25; for VGKL: no more than 0.25.
Turning to INRP, the enrichment ratio is no more than 0.25.
The figure for DTVM is no more than 0.25; for NTSL it is no more than 0.25.
In the case of TYHA, the enrichment ratio was no more than 0.25.
The figure for PRHV is no more than 0.25.
The same measure for ELKV: no more than 0.25; for IRSH: no more than 0.25; for NHRC: no more than 0.25.
The figure for HFQL is no more than 0.25.
Consider VVGN, for which the enrichment ratio was no more than 0.25.
The same measure for GVEP: no more than 0.25; for IVHQ: no more than 0.25.
The figure for RWMA is no more than 0.25; for PCEH it is no more than 0.25.
For the variant LQYE, the enrichment ratio is no more than 0.25.
The same measure for NYCH: no more than 0.25.
The same measure for WQRT: no more than 0.25.
The figure for VGRH is no more than 0.25; for WLVV it is no more than 0.25.
As to MINS, the enrichment ratio was no more than 0.25.
FGCM: the enrichment ratio came out at 2.78.
The same measure for NNEC: no more than 0.25; for QRNC: no more than 0.25.
As for DQRH, the enrichment ratio is no more than 0.25.
For DIPR, the enrichment ratio was no more than 0.25.
As for LDND, the enrichment ratio was no more than 0.25.
The figure for PWPN is no more than 0.25; for HIGD it is no more than 0.25; for WIRQ it is no more than 0.25.
The figure for HFLW is no more than 0.25; for KCQT it is no more than 0.25; for IYVR it is no more than 0.25.
Take QKVF: the enrichment ratio is no more than 0.25.
For WVSL, the enrichment ratio is no more than 0.25.
The same measure for IMRG: no more than 0.25.
As to RKFA, the enrichment ratio was no more than 0.25.
Consider EEHV, for which the enrichment ratio was no more than 0.25.
The figure for FTKW is no more than 0.25; for YLHK it is no more than 0.25.
Take RCCF: the enrichment ratio is no more than 0.25.
For the variant QAVQ, the enrichment ratio is no more than 0.25.
Regarding IRLQ, the enrichment ratio was no more than 0.25.
As to YNQF, the enrichment ratio was no more than 0.25.
For the variant VEMW, the enrichment ratio was no more than 0.25.
With RQSI, the enrichment ratio was no more than 0.25.
The figure for AKMD is no more than 0.25; for YDMF it is no more than 0.25.
The figure for EFYP is no more than 0.25; for GISI it is 9.15; for VGCQ it is no more than 0.25.
Turning to DIIM, the enrichment ratio was no more than 0.25.
In the case of QISH, the enrichment ratio amounted to 7.86.
The figure for YYRT is no more than 0.25; for GVVG it is no more than 0.25; for LAEQ it is no more than 0.25.
The same measure for HYDE: no more than 0.25.
On to FMQP, for which the enrichment ratio is no more than 0.25.
The figure for WDPQ is no more than 0.25; for PNVA it is no more than 0.25; for YRND it is no more than 0.25.
The same measure for RSYS: no more than 0.25; for ENNH: no more than 0.25; for CSYQ: no more than 0.25.
Take RYCC: the enrichment ratio was no more than 0.25.
For SNHQ, the enrichment ratio was no more than 0.25.
The same measure for WPWF: no more than 0.25; for VHNP: no more than 0.25.
The same measure for FNRE: no more than 0.25; for YPQF: no more than 0.25.
For the variant MLTK, the enrichment ratio was no more than 0.25.
On to ADGE, for which the enrichment ratio was no more than 0.25.
The same measure for RWKL: no more than 0.25; for EWKL: no more than 0.25; for TWDI: no more than 0.25.
The figure for LCWD is no more than 0.25.
The figure for QHMI is no more than 0.25.
Take LQLK: the enrichment ratio was no more than 0.25.
The figure for MAEL is no more than 0.25; for HTIV it is no more than 0.25; for MAGF it is 14.5.
In the case of QCMH, the enrichment ratio was no more than 0.25.
The same measure for MLVG: no more than 0.25; for WRVN: no more than 0.25.
With HNDD, the enrichment ratio was no more than 0.25.
Regarding LITR, the enrichment ratio was no more than 0.25.
Turning to MGDC, the enrichment ratio was no more than 0.25.
As to RYCD, the enrichment ratio was no more than 0.25.
The figure for KASG is no more than 0.25; for EQSF it is no more than 0.25.
Consider TILF, for which the enrichment ratio is no more than 0.25.
On to WGKM, for which the enrichment ratio was no more than 0.25.
The figure for VKQL is no more than 0.25; for QGRP it is no more than 0.25.
On to IHGN, for which the enrichment ratio is no more than 0.25.
The figure for QCLI is no more than 0.25; for VPAS it is no more than 0.25.
Take SFLS: the enrichment ratio was 3.63.
The same measure for HGHW: no more than 0.25; for QLDY: no more than 0.25.
Regarding DPWH, the enrichment ratio was no more than 0.25.
The same measure for RQSA: no more than 0.25; for KEFL: no more than 0.25; for EMYQ: no more than 0.25.
The same measure for IQDG: no more than 0.25; for QVGT: no more than 0.25.
QSCI: the enrichment ratio was no more than 0.25.
Consider YNWQ, for which the enrichment ratio is no more than 0.25.
As for EFSA, the enrichment ratio is no more than 0.25.
The figure for PCVI is no more than 0.25; for VHTT it is no more than 0.25; for MAIG it is 9.17.
The same measure for RRIS: no more than 0.25; for GRTH: no more than 0.25.
As to PDET, the enrichment ratio is no more than 0.25.
The same measure for GIMC: 17.3.
In the case of EHPG, the enrichment ratio is no more than 0.25.
The figure for VRHD is no more than 0.25; for IVSK it is no more than 0.25; for FDYW it is no more than 0.25.
As for RVRW, the enrichment ratio is no more than 0.25.
The figure for TKGT is no more than 0.25; for KHHM it is no more than 0.25; for KFIT it is no more than 0.25.
Turning to GHVI, the enrichment ratio was no more than 0.25.
The figure for SGRK is no more than 0.25.
The figure for ARIC is no more than 0.25; for WDTT it is no more than 0.25; for IWMS it is no more than 0.25.
The same measure for QMYS: no more than 0.25.
For the variant MSAL, the enrichment ratio amounted to 9.18.
The figure for KIPD is no more than 0.25.
The figure for RNYA is no more than 0.25; for NLGC it is no more than 0.25; for MRFH it is no more than 0.25.
The figure for MISK is no more than 0.25; for SNSS it is 10.8.
VEPM: the enrichment ratio is no more than 0.25.
Take ASLH: the enrichment ratio is 11.2.
For NQHR, the enrichment ratio was no more than 0.25.
